From PubChem BioAssay AID588855 (National Center for Advancing Translational Sciences (NCATS), 2011)
Hit rate of the full screen: of about 410,000 compounds, about 5,000 (1.2%) were called active. This list was built around the results that the source calls inconclusive (neither active nor inactive); the mix of calls is not that of the screen. The call rests on the fitted dose curve; in most records, active means well fitted inhibition curve with a large enough effect; inconclusive means small, poorly fitted or top-dose-only effect; inactive means no such curve, though single readings can be large or run the other way. Potencies beside an inconclusive call are fits to weak or partial responses and may not hold up.

Assay: qHTS for Inhibitors of TGF-b; further: nearly all actives have a fitted effect of over 65% in size
Conditions: HepG2 CAGA-GFP TGF-b/SMAD3 reporter, GFP fluorescence, 18 h, TGF-beta stimulated, 500 pg/mL final; series mostly up to 46.1 µM
Method in brief: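 TGF-beta reporter screen: HEPG2 CAGA-GFP, 1% FBS, 500 pg/mL TGF-beta final, 18 h; per-cell GFP summed per well; curves fitted and categorized by class.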
Potency means the concentration at half of the fitted maximal effect; tags describe the fitted curve by direction and shape.

Structure (SMILES) | Potency
Cc1cc(Cl)ccc1NC(=O)CSc1nnc(Cc2cccs2)n1Cc1ccco1 | inconclusive: 2.82 µM [inhibitor, single point]
Cc1nc(CN2CCN(C(=O)c3ccc(C(C)(C)C)cc3)CC2)cs1 | inactive
O=C(Nc1ccnn1C1CCN(Cc2ccc(OC(F)F)cc2)CC1)C1CCCC1 | inconclusive: 35.5 µM [inhibitor, single point]
CC(=O)N(C1=C(Cl)C(=O)c2ccccc2C1=O)C1CCCCC1 | active: 2.82 µM
CCC(=O)N1N=C(c2ccc(NS(=O)(=O)CC)cc2)CC1c1ccc(C)cc1 (centres undefined) | inactive
COc1ccccc1C1=NOC(COc2ccc3c(C)cc(=O)oc3c2)C1 (centres undefined) | inconclusive: 11.2 µM [inhibitor, partial curve, poor fit]
CCc1cccc(NC(=O)c2c(C)oc3ncnc(N4CCCCC4)c23)c1 | inconclusive: 35.5 µM [inhibitor, single point]
CCCCCCN1CC(C(=O)OCC)C(=O)C1=O (centres undefined) | inconclusive: 17.8 µM [inhibitor, single point]
COc1ccc(C)cc1S(=O)(=O)N1CCN(c2cccc(C(F)(F)F)c2)CC1 | inconclusive: 35.5 µM [inhibitor, single point]
CCOC(=O)Cc1csc(NC(=O)Cc2cccs2)n1 | inconclusive: 14.1 µM [inhibitor, partial curve, poor fit]
CC(=O)Nc1ccc(-c2csc(NC(=O)Cc3cccc(F)c3)n2)cc1 | inactive
O=C(NCC1CCCO1)/C(=C\c1ccco1)NC(=O)c1ccc(Cl)cc1 (centres undefined) | inconclusive: 15.8 µM [inhibitor, partial curve, poor fit]
CC(C(=O)N1CCc2ccccc21)N1CCN(S(=O)(=O)c2cccc(C(F)(F)F)c2)CC1 (centres undefined) | inconclusive: 12.6 µM [inhibitor, single point]
Cc1nc2ccccc2nc(C)c1=NOCc1ccc(C#N)cc1 | inconclusive: 8.91 µM [inhibitor, partial curve, poor fit]
CCN(CC)C(=O)c1cn(CCC#N)nc1-c1ccc(F)cc1 | inconclusive: 35.5 µM [inhibitor, single point]
CCc1n[nH]c(=S)n1/N=C/c1ccc(N(C)c2ccccc2)cc1 | inconclusive: 35.5 µM [inhibitor, single point]
COc1ccc(S(=O)(=O)N(C)C[C@H]2Oc3ccc(NS(=O)(=O)c4ccccc4)cc3CC(=O)N([C@H](C)CO)C[C@@H]2C)cc1 | inconclusive: 1.26 µM [inhibitor, full curve]
CC(Sc1nc2ncc(Cl)cc2[nH]1)C(=O)NC1(C#N)CCCCC1 (centres undefined) | inconclusive: 10 µM [inhibitor, partial curve]
Clc1ccc(N2CCN(c3cnc4ccccc4n3)CC2)cc1 | inactive
Cc1ccc(NC(=O)c2ccnc(C(C)(C)C)c2)cc1 | inconclusive: 6.31 µM [inhibitor, single point]
O=C(CNC(=O)c1ccccc1)N/N=C/c1ccc([N+](=O)[O-])s1 | active: 11.2 µM
O=C1CN(C(=O)c2ccco2)C(c2ccccc2)c2cc(Cl)ccc2N1 (centres undefined) | inconclusive: 17.8 µM [inhibitor, single point]

Structure (SMILES) | Potency
Cc1ccc(NC(=O)c2ccc3c(=O)n4c(nc3c2)CCC4)cc1F | inconclusive: 17.8 µM [inhibitor, single point]
CCOc1ccc(NC(=O)Cn2c(=O)n(Cc3ccccc3)c(=O)c3c4c(sc32)CN(C(C)=O)CC4)cc1 | inactive
CC(C)(C)c1ccc(S(=O)(=O)N2CCC(c3ccncc3)CC2)cc1 | active: 2.82 µM
CCCN1C2CCCC1CC(NC(=O)Nc1cccc(C(C)=O)c1)C2 (centres undefined) | inactive
CCc1ccc(CN2CCC(C(=O)Nc3ccc(Oc4ccccc4)nc3)CC2)o1 | inconclusive: 11.2 µM [inhibitor, single point]
CCCN1Cc2cccc(C(N)=O)c2C1=O | inactive
Cc1cc(O)c(C)c(O)c1/C=N/NC(=O)c1cccnc1 | inactive
COc1ccc(-n2cc(C(=O)Nc3ccccc3C#N)c3ccccc3c2=O)cc1 | inactive
Cc1cc(Br)ccc1OCCNCc1ccccc1 | inconclusive: 17.8 µM [inhibitor, partial curve]
O=C1CCCC(O)=C1Sc1cc(Cl)c(Cl)cc1Cl | inconclusive: 2.82 µM [inhibitor, partial curve, poor fit]
O=[N+]([O-])c1ccc(NC(=S)NCCc2ccc(F)cc2)cc1 | inconclusive: 2 µM [inhibitor, partial curve, poor fit]
O=C(O)CN1C(=O)/C(=C\c2cc(Br)ccc2OCc2ccc(Cl)cc2Cl)SC1=S | inconclusive: 22.4 µM [inhibitor, single point]
COc1cc(S(=O)(=O)Nc2ccc3nc(C)sc3c2)ccc1NC(C)=O | inactive
COc1cc(Br)cc(/C=C/c2ccc3cccc(O)c3n2)c1O | inconclusive: 35.5 µM [inhibitor, single point]
O=C1CC(=O)N(C2CCCCC2)C(=O)N1c1ccccc1S(=O)(=O)Oc1ccccc1 | inactive
O=C(Cc1ccccc1)Nc1ccc(C(=O)O)cc1 | inconclusive: 7.94 µM [inhibitor, partial curve, poor fit]
Cc1ccc(N2C3=C(C(=O)CC(C)(C)C3)C(c3cn(C)nc3C)C3=C2CC(C)(C)CC3=O)cc1 | inconclusive: 14.1 µM [inhibitor, single point]
O=C(NCCc1ccc(Cl)cc1)c1ccc(CS(=O)Cc2ccc(Cl)cc2)o1 (centres undefined) | inconclusive: 35.5 µM [inhibitor, single point]
CC(=O)Nc1c(C(=O)Nc2ccccc2F)oc2ccccc12 | inconclusive: 35.5 µM [inhibitor, single point]
COCCn1c(SCC(=O)N2CCc3ccccc3C2)nc2ccccc2c1=O | inactive
COc1cccc(NC(=O)CC2Oc3ccccc3NC2=O)c1 (centres undefined) | inconclusive: 2.51 µM [inhibitor, full curve, poor fit]
CC(=O)c1cccc(Nc2ncnc3c2cnn3-c2cccc(Cl)c2)c1 | inactive
